PubChem BioAssay AID1768 (National Center for Advancing Translational Sciences (NCATS), 2009)
“And” between values parts separate entries of the source, which are not always exact repeats. Equal entries are not always repeated. The campaign covered roughly 270,000 compounds. About 620 (0.23%) were called active. The shares of active, inactive and inconclusive entries below differ from those in the screen. The call rests on the fitted dose curve; in most records, active means well fitted inhibition curve with a large enough effect in the polarisation, with a control signal flat (not every such curve was filed as active); inconclusive means small, poorly fitted or top-dose-only effect, or effect the other way, or a change in a side signal; inactive means no such curve, though single readings can be large or run the other way; the % refers to the polarisation. Potencies of inconclusive entries are doubtful fits and often do not repeat. A note “side channel” means that the fit belongs to a control or component signal, not to the main read-out.

Target: Menin (Homo sapiens) (UniProt O00255)
UniProt O00255, sequence (O00255 whole entry, looked up): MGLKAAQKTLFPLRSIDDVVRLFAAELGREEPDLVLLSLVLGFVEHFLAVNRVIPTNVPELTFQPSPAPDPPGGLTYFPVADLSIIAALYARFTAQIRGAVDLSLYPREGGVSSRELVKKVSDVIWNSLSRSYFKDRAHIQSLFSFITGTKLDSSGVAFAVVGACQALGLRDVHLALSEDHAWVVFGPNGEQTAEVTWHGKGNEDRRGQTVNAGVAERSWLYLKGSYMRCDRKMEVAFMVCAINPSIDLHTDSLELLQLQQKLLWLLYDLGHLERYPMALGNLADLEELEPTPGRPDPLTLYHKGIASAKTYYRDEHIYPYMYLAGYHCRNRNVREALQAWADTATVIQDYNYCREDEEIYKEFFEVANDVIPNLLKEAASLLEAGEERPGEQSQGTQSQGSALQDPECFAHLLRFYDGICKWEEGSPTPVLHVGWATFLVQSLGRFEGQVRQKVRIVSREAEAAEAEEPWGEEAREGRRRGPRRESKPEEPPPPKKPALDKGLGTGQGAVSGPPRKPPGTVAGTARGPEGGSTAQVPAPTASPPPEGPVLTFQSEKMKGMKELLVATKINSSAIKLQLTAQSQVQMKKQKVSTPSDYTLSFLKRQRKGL
Assay: qHTS Assay for Inhibitors Targeting the Menin-MLL Interaction in MLL Related Leukemias: Competition With Texas Red Labeled MLL-derived Mutant Peptide; on FP activity change, negative = inhibition: % of control where 0% means no effect
Settings: fluorescence polarization; FP activity change, negative = inhibition: at 61.6 µM (top of the series)
Potency means the concentration at half of the fitted maximal effect; tags describe the fitted curve by direction and shape or compound fluorescence and quenching.

Potency, inconclusive:
Cc1ccc(C(=O)OCC(=O)Nc2nc(-c3ccccc3)cs2)cc1NC(=O)c1ccco1 39.8 µM [inhibitor, single point], CNC(=O)c1[nH]cnc1C(=O)N[C@@H](CC(C)C)C(=O)OC(C)(C)C 22.4 µM [fluorescent, side channel, single point], COc1cc2[nH]c(C(=O)N3CC(C)OC(C)C3)cc2c(OC)c1OC (configuration not stated) 12.6 µM [inhibitor, partial curve, poor fit], CCN(CC)CCNCc1cc(Cl)ccc1OCc1ccccc1F 28.2 µM [fluorescent, side channel, partial curve], Cc1ccc(C(=O)C[n+]2cc(-c3ccc(C)cc3)n3c2CCCCC3)cc1 1.26 µM [fluorescent, side channel, full curve, poor fit], COc1cccc2c(=O)c3cccc(N)c3[nH]c12 17.8 µM [quencher, side channel, partial curve], Oc1ccc(/C=N\Nc2cc(N3CCOCC3)nc(N3CCOCC3)n2)c(O)c1 25.1 µM [quencher, side channel, single point], CCC(=O)N(CCC(Cc1ccccc1)c1ccc2c(c1)OCO2)Cc1ccccc1F (configuration not stated) 2.82 µM [inhibitor, full curve, poor fit], Cc1ccc(S(=O)(=O)N/N=C\C=C\c2ccccc2)cc1 39.8 µM [quencher, side channel, single point], O=C(Nc1ccc(Br)cc1)c1cccc(N2C(=O)C3C4CCC(C4)C3C2=O)c1 (configuration not stated) 25.1 µM [quencher, side channel, single point], O=C(N/N=C/c1cccc(C(F)(F)F)c1)c1ccccc1O 12.6 µM [quencher, side channel, partial curve, poor fit], CNS(=O)(=O)c1cccc(C(=O)OCC(=O)/C=C2/N(C)c3ccccc3C2(C)C)c1 35.5 µM [fluorescent, side channel, partial curve], COc1ccc(C(NC(=O)C2C3C=CC(C3)C2C(=O)O)c2ccccc2)cc1 (configuration not stated) 20 µM [inhibitor, single point], Cc1ccccc1C(=O)c1cccn1CC(=O)NCc1cccc(Cl)c1 39.8 µM [inhibitor, single point], C/C(=N\Nc1ccc(Cl)c(Cl)c1)c1ccc(-n2ccnc2)cc1 39.8 µM [quencher, side channel, single point], CCCn1c(N)c(N(CCOC)C(=O)c2cc(C)cc(C)c2)c(=O)[nH]c1=O 0.562 µM [inhibitor, full curve, poor fit], Cc1ccsc1/C=C1\SC(N)=NC1=O 39.8 µM [inhibitor, single point], CC(C)CN1C(=O)c2ccc(C(=O)Nc3ccc(O)cc3C(=O)O)cc2C1=O 15.8 µM [quencher, side channel, partial curve], Cc1ccc(-c2nnc(OCc3cccnc3)c3ccccc23)cc1 8.91 µM [inhibitor, partial curve], COc1ccc(/C=N/NC(=S)Nc2ccccc2)cc1COc1ccc(F)cc1F 11.2 µM [inhibitor, partial curve], COc1cc(NS(=O)(=O)c2ccc3ccccc3c2)c2ncccc2c1 25.1 µM [quencher, side channel, single point] and 15.8 µM [quencher, side channel, partial curve], COc1ccc(C(=O)Nc2ccc(NC(=O)Cc3ccccc3)cn2)cc1 39.8 µM [inhibitor, single point], Clc1ccccc1-c1nc(NCc2cccs2)c2ccccc2n1 17.8 µM [quencher, side channel, partial curve], CC(C)c1ccc(S(=O)(=O)N2CCN(CC(=O)c3ccc(O)c(O)c3)CC2)cc1 28.2 µM [quencher, side channel, partial curve], COc1cccc(-c2csc3nnc(SCC(=O)c4ccc(NC(C)=O)cc4)n23)c1 39.8 µM [inhibitor, single point], COc1cccc(-c2cc3nc(-c4ccccc4)cc(N4CCCC(O)C4)n3n2)c1 (configuration not stated) 10 µM [quencher, side channel, partial curve], C=CCOc1cccc(C2C(C(=O)c3ccco3)=C(O)C(=O)N2Cc2cccnc2)c1 (configuration not stated) 31.6 µM [inhibitor, partial curve], O=C(NC1CCCCC1)C(c1ccc(F)cc1)N(C(=O)c1cccs1)c1ccc2c(c1)OCO2 (configuration not stated) 31.6 µM [fluorescent, side channel, single point], Cc1ccc(-c2n[nH]c(=S)c3ccccc23)cc1 12.6 µM [fluorescent, side channel, partial curve], Cc1cccc(OCC(O)Cn2c(NCc3cccnc3)nc3c2c(=O)[nH]c(=O)n3C)c1 (configuration not stated) 8.91 µM [quencher, side channel, single point], CC(=O)c1ccc(NC(=O)CN2CCC(C(=O)c3ccc4c(c3)OCCO4)CC2)cc1 35.5 µM [inhibitor, partial curve], Cc1c(C(=O)N2CCOCC2)sc(NC(=O)c2ccc([N+](=O)[O-])cc2)c1C#N 25.1 µM [quencher, side channel, partial curve], COC(=O)N/N=C/c1cc(Cl)cc(Cl)c1OCc1ccc(F)cc1 39.8 µM [quencher, side channel, single point], Cc1ccccc1NC(NC(=O)c1cccs1)C(Cl)(Cl)Cl (configuration not stated) 3.55 µM [quencher, side channel, partial curve], CCOc1cccc(/C=N/NC(=O)c2cc(-c3cccn3C)n[nH]2)c1O 14.1 µM [quencher, side channel, partial curve], Cc1cc2oc(=O)cc(CN3CCN(Cc4ccccc4)CC3)c2cc1C 14.1 µM [fluorescent, side channel, partial curve], O=C(CCN1C(=O)/C(=C/c2cccc(Br)c2)SC1=S)Nc1cccnc1 10 µM [quencher, side channel, partial curve], O=C(CSc1nc2c(c(=O)n1-c1ccccc1)SCC2)N1CCN(c2ccccc2)CC1 17.8 µM [inhibitor, single point], COc1ccc(NC(=O)c2nnn(CC(=O)Nc3ccc4c(c3)OCO4)c2N)cc1OC 8.91 µM [quencher, side channel, partial curve], CSc1ccccc1NC(=O)Cc1ccccc1[N+](=O)[O-] 39.8 µM [fluorescent, side channel, single point], CN(C(=O)COC(=O)c1ccccc1C(=O)N1CCN(c2ccccc2)CC1)c1ccccc1 35.5 µM [inhibitor, single point], CCCCc1nc(NCCO)c(C#N)c2c1CCCC2 15.8 µM [fluorescent, side channel, partial curve], N/C(=N\OC(=O)c1ccc2ccccc2c1)c1cccc([N+](=O)[O-])c1 14.1 µM [quencher, side channel, partial curve], N#Cc1ccc(C(=O)N(Cc2ccccc2)c2ccccc2)cc1 2.24 µM [inhibitor, single point], CCOc1cccc2sc(N(CCCN(C)C)C(=O)c3ccc(C(=O)c4ccccc4)cc3)nc12 3.16 µM [fluorescent, side channel, full curve], N#C/C=C/C(=C\Nc1ccc(Cl)cc1)S(=O)(=O)c1ccccc1 39.8 µM [inhibitor, single point], CCn1c(SCC(=O)Nc2nc(-c3ccc(C)cc3)cs2)nnc1-c1ccccc1O 39.8 µM [inhibitor, single point], CN1CCN(C2=Cc3ccccc3Sc3cc(F)c(F)cc32)CC1 3.55 µM [inhibitor, partial curve, poor fit], Cc1nnnn1/C(=C\c1ccccc1)C(=O)OCC(=O)N1CC2(C)CC1CC(C)(C)C2 (configuration not stated) 12.6 µM [inhibitor, partial curve], O=C(N/N=C/c1cc(Br)cc(Br)c1O)c1cccc(N2CCCC2=O)c1 20 µM [quencher, side channel, partial curve]

FP activity change, negative = inhibition, inactive:
CCc1nnc(SCc2cn3c(C)cc(C)nc3n2)n1N -20.4%, Cc1cc(=O)oc(C)c1C(=O)NCc1ccccn1 -18.8%, CCC(=Cc1ccc(CC)cn1)CC -37.2%, COc1ncc2nc(-c3cn(C)c4ccccc34)c(=O)n(C)c2n1 1.12%, CC(=O)COc1ccc2c(C)c(-c3ccccc3)c(=O)oc2c1 -2.15%, CC(=O)c1c(C)[nH]c(C(=O)NC2CCCCC2)c1C 1.02%, CC(=O)C1=C(c2ccccc2)NC(=S)NC1c1ccc(O)c(O)c1 (configuration not stated) 18.4%
